Experimental data from PMC5004831, “Molecular and biochemical characterization of carbonic anhydrases of Paracoccidioides” (Genetics and Molecular Biology, 2016).

How the values were obtained:
[1] = biological target: T1, rCA4 (CA4), alpha-class carbonic anhydrase of Paracoccidioides (Paracoccidioides brasiliensis, UniProt B1PIT4); experiment: in-gel esterase activity, UV fluorescence; type: biochemical; conditions: native 6% PAGE with 1% starch; 100 mM phosphate pH 6.5, 37 °C
T1 construct: 32 kDa
T1 sequence (B1PIT4 1-301): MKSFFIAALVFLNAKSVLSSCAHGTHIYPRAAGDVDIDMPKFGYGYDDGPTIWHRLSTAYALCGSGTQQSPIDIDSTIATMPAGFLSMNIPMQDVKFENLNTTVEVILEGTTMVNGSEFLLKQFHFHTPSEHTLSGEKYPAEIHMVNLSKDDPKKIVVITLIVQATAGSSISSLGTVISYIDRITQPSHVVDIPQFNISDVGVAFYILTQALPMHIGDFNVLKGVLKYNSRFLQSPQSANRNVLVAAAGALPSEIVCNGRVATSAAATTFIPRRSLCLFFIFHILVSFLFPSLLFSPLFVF

[2] = biological target: T2, rCA1 (CA1), beta-class carbonic anhydrase of Paracoccidioides (Paracoccidioides lutzii, UniProt C1H4M3); experiment: in-gel esterase activity, UV fluorescence; type: biochemical; conditions: native 6% PAGE with 1% starch; 100 mM phosphate pH 6.5, 37 °C
T2 construct: gene PAAG_05716; complete cDNA, 282 residues, GST fusion (pGEX-4T-3) from E. coli, GST cut by thrombin; 33 kDa
T2 sequence (C1H4M3 1-282): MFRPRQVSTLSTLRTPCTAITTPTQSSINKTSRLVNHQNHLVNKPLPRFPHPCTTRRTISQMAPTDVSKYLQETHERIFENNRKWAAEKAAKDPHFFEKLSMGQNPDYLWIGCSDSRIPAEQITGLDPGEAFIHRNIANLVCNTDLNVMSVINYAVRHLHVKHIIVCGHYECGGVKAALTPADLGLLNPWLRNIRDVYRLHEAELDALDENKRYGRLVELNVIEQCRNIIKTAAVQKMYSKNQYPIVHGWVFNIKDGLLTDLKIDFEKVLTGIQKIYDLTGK

In the case of `CC(=O)Oc1ccc2c(C)cc(=O)oc2c1` [4-metillumbeliferil acetate], the “in-gel esterase activity, UV fluorescence” value [1] is reported as “The proteins were visualized by the halo of hydrolysis (Figure 2D)” and the “in-gel esterase activity, UV fluorescence” value [2] is reported as “The proteins were visualized by the halo of hydrolysis (Figure 2D)”.
